# Test results published in the supplement of paper PMC8728848.
# Some of the results follow.
# B1: PX14343H-pdi-506-26-506 (Parabacteroides distasonis) (protein)
# chain: QPTGTMTTDSKLTSKESALALTNSAYLKNTVFNKMTPGWGCNTILLLEYMTGKATSENSQSNYKDFQDLLVSDRSLYIEDWWQDCYAGIANCNLALQKLGEFENLDASLVNGYMAEVKFMRALYYFYLVRIFGDVPKITTVQSELGELQVSRAPVKEIYDEIIIPDLLEAEQSDLAFSDHTGRVSMGAVKALLADVYLTYAGYPLQGGKSYYAESAKRSLEVIKSNEYTLFTDYESLRLPSQNNKGEFIYQVQFSLNKRHNESVRIFLPSRSGISAYDLEYGSLIPTKEFVESFEKGDKRTEEKQYFFTNYKGHPSKFSPGAAELEFMDLNGYYIYKFFDQVAVDNTAKSDLNWSVYRYTDVLLMYAEAQVNADGTPNQQSIDIVNQIRGRAGLAPFKQTNASAFLEEVWDQRYFDLCYENKMWFDMLRTRKIRDDKSGEYVDFIGYKTNWGKVYTETQLLFPIPLSERQANPNLTQNQGY
# Assays:
# Assay in all cases: glycan array binding signal (z-score within array); higher = stronger binding
# Details in all cases: glycan notation: IUPAC condensed, linker removed
# [1] = molecular target: Neu5Ac(a2-3)Gal(b1-4)GlcNAc(b1-2)[Neu5Ac(a2-3)Gal(b1-4)GlcNAc(b1-4)]Man(a1-3)[GlcNAc(b1-4)][Neu5Ac(a2-3)Gal(b1-4)GlcNAc(b1-4)Man(a1-6)]Man(b1-4)GlcNAc(b1-4)GlcNAc
# How it was run: (§1)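 Glycan array data came from 3228 arrays in the Consortium for Functional Glycomics database, and only arrays with an available protein sequence were kept. Glycan names were put into IUPAC-condensed notation, and columns mapping to the same glycan were averaged. The binding signal is a within-array Z-score, averaged across arrays of one protein sequence run at different concentrations or buffers and across linkers. A negative Z-score can be read as non-binding.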
# [2] = molecular target: Neu5Ac(a2-3)Gal(b1-4)GlcNAc(b1-2)[Neu5Ac(a2-3)Gal(b1-4)GlcNAc(b1-6)]Man(a1-6)[Neu5Ac(a2-3)Gal(b1-4)GlcNAc(b1-2)Man(a1-3)]Man(b1-4)GlcNAc(b1-4)GlcNAc
# How it was run: as §1
# [3] = molecular target: Neu5Ac(a2-3)Gal(b1-4)GlcNAc(b1-2)[Neu5Ac(a2-3)Gal(b1-4)GlcNAc(b1-6)]Man(a1-6)[Neu5Ac(a2-3)Gal(b1-4)GlcNAc(b1-2)Man(a1-3)][GlcNAc(b1-4)]Man(b1-4)GlcNAc(b1-4)GlcNAc
# How it was run: as §1
# [4] = molecular target: Neu5Ac(a2-3)Gal(b1-4)GlcNAc(b1-3)Gal
# How it was run: as §1
# [5] = molecular target: Neu5Ac(a2-3)Gal(b1-4)GlcNAc(b1-3)Gal(b1-3)GlcNAc
# How it was run: as §1
# [6] = molecular target: Neu5Ac(a2-3)Gal(b1-4)GlcNAc(b1-3)Gal(b1-4)GlcNAc
# How it was run: as §1
# [7] = molecular target: Neu5Ac(a2-3)Gal(b1-4)GlcNAc(b1-3)Gal(b1-4)GlcNAc(b1-2)Man(a1-3)[Neu5Ac(a2-3)Gal(b1-4)GlcNAc(b1-3)Gal(b1-4)GlcNAc(b1-2)Man(a1-6)]Man(b1-4)GlcNAc(b1-4)GlcNAc
# How it was run: as §1
# [8] = molecular target: Neu5Ac(a2-3)Gal(b1-4)GlcNAc(b1-3)Gal(b1-4)GlcNAc(b1-3)Gal(b1-4)GlcNAc
# How it was run: as §1
# [9] = molecular target: Neu5Ac(a2-3)Gal(b1-4)GlcNAc(b1-3)Gal(b1-4)GlcNAc(b1-3)Gal(b1-4)GlcNAc(b1-2)Man(a1-3)[Neu5Ac(a2-3)Gal(b1-4)GlcNAc(b1-3)Gal(b1-4)GlcNAc(b1-3)Gal(b1-4)GlcNAc(b1-2)Man(a1-6)]GalNAc
# How it was run: as §1
# [10] = molecular target: Neu5Ac(a2-3)Gal(b1-4)GlcNAc(b1-3)Gal(b1-4)GlcNAc(b1-3)GalNAc
# How it was run: as §1
# [11] = molecular target: Neu5Ac(a2-3)Gal(b1-4)GlcNAc(b1-3)Gal(b1-4)GlcNAc(b1-3)[Neu5Ac(a2-3)Gal(b1-4)GlcNAc(b1-3)Gal(b1-4)GlcNAc(b1-6)]GalNAc
# How it was run: as §1
# [12] = molecular target: Neu5Ac(a2-3)Gal(b1-4)GlcNAc(b1-3)Gal(b1-4)GlcNAc(b1-6)[Gal(b1-3)]GalNAc
# How it was run: as §1
# [13] = molecular target: Neu5Ac(a2-3)Gal(b1-4)GlcNAc(b1-3)Gal(b1-4)[Fuc(a1-3)]GlcNAc
# How it was run: as §1
# [14] = molecular target: Neu5Ac(a2-3)Gal(b1-4)GlcNAc(b1-3)GalNAc
# How it was run: as §1
# [15] = molecular target: Neu5Ac(a2-3)Gal(b1-4)GlcNAc(b1-3)[Neu5Ac(a2-3)Gal(b1-4)GlcNAc(b1-6)]GalNAc
# How it was run: as §1
# [16] = molecular target: Neu5Ac(a2-3)Gal(b1-4)GlcNAc(b1-6)GalNAc
# How it was run: as §1
# [17] = molecular target: Neu5Ac(a2-3)Gal(b1-4)GlcNAc(b1-6)[Gal(b1-3)]GalNAc
# How it was run: as §1
# [18] = molecular target: Neu5Ac(a2-3)Gal(b1-4)GlcNAc(b1-6)[Neu5Ac(a2-3)Gal(b1-3)]GalNAc
# How it was run: as §1
# [19] = molecular target: Neu5Ac(a2-3)Gal(b1-4)GlcNAc6S
# How it was run: as §1
# [20] = molecular target: Neu5Ac(a2-3)Gal(b1-4)[Fuc(a1-3)]GlcNAc
# How it was run: as §1
# [21] = molecular target: Neu5Ac(a2-3)Gal(b1-4)[Fuc(a1-3)]GlcNAc(b1-2)Man
# How it was run: as §1
# [22] = molecular target: Neu5Ac(a2-3)Gal(b1-4)[Fuc(a1-3)]GlcNAc(b1-3)Gal
# How it was run: as §1
# [23] = molecular target: Neu5Ac(a2-3)Gal(b1-4)[Fuc(a1-3)]GlcNAc(b1-3)Gal(b1-4)GlcNAc
# How it was run: as §1
# [24] = molecular target: Neu5Ac(a2-3)Gal(b1-4)[Fuc(a1-3)]GlcNAc(b1-3)Gal(b1-4)[Fuc(a1-3)]GlcNAc(b1-3)Gal(b1-4)[Fuc(a1-3)]GlcNAc
# How it was run: as §1
# [25] = molecular target: Neu5Ac(a2-3)Gal(b1-4)[Fuc(a1-3)]GlcNAc(b1-3)GalNAc
# How it was run: as §1
# [26] = molecular target: Neu5Ac(a2-3)Gal(b1-4)[Fuc(a1-3)]GlcNAc(b1-6)[Gal(b1-3)]GalNAc
# How it was run: as §1
# [27] = molecular target: Neu5Ac(a2-3)Gal(b1-4)[Fuc(a1-3)]GlcNAc(b1-6)[Neu5Ac(a2-3)Gal(b1-3)]GalNAc
# How it was run: as §1
# [28] = molecular target: Neu5Ac(a2-3)Gal(b1-4)[Fuc(a1-3)]GlcNAc6S
# How it was run: as §1
# [29] = molecular target: Neu5Ac(a2-3)Gal6S(b1-4)GlcNAc
# How it was run: as §1
# [30] = molecular target: Neu5Ac(a2-3)Gal6S(b1-4)[Fuc(a1-3)]GlcNAc
# How it was run: as §1
# Neu5Ac(a2-3)GalNAc = molecular target: Neu5Ac(a2-3)GalNAc
# How it was run: as §1
# [31] = molecular target: Neu5Ac(a2-3)GalNAc(b1-4)GlcNAc
# How it was run: as §1
# [32] = molecular target: Neu5Ac(a2-3)[GalNAc(b1-4)]Gal(b1-4)Glc
# How it was run: as §1
# [33] = molecular target: Neu5Ac(a2-3)[GalNAc(b1-4)]Gal(b1-4)GlcNAc
# How it was run: as §1
# [34] = molecular target: Neu5Ac(a2-3)[GalNAc(b1-4)]Gal(b1-4)GlcNAc(b1-3)GalNAc
# How it was run: as §1
# [35] = molecular target: Neu5Ac(a2-3)[Neu5Ac(a2-6)]GalNAc
# How it was run: as §1
# Neu5Ac(a2-6)Gal = molecular target: Neu5Ac(a2-6)Gal
# How it was run: as §1
binder,measurement,setting,value
B1,glycan array binding signal (z-score),[1],-0.423
same,glycan array binding signal (z-score),[2],-0.182
same,glycan array binding signal (z-score),[3],-0.329
same,glycan array binding signal (z-score),[4],-0.347
same,glycan array binding signal (z-score),[5],-0.492
same,glycan array binding signal (z-score),[6],-0.392
same,glycan array binding signal (z-score),[7],-0.03
same,glycan array binding signal (z-score),[8],-0.404
same,glycan array binding signal (z-score),[9],0.107
same,glycan array binding signal (z-score),[10],-0.334
same,glycan array binding signal (z-score),[11],-0.24
same,glycan array binding signal (z-score),[12],-0.344
same,glycan array binding signal (z-score),[13],-0.38
same,glycan array binding signal (z-score),[14],-0.257
same,glycan array binding signal (z-score),[15],-0.272
same,glycan array binding signal (z-score),[16],-0.444
same,glycan array binding signal (z-score),[17],-0.127
same,glycan array binding signal (z-score),[18],-0.369
same,glycan array binding signal (z-score),[19],-0.533
same,glycan array binding signal (z-score),[20],-0.352
same,glycan array binding signal (z-score),[21],-0.451
same,glycan array binding signal (z-score),[22],-0.265
same,glycan array binding signal (z-score),[23],-0.241
same,glycan array binding signal (z-score),[24],-0.321
same,glycan array binding signal (z-score),[25],-0.027
same,glycan array binding signal (z-score),[26],1.67
same,glycan array binding signal (z-score),[27],0.205
same,glycan array binding signal (z-score),[28],-0.419
same,glycan array binding signal (z-score),[29],-0.371
same,glycan array binding signal (z-score),[30],-0.416
same,glycan array binding signal (z-score),Neu5Ac(a2-3)GalNAc,-0.48
same,glycan array binding signal (z-score),[31],-0.527
same,glycan array binding signal (z-score),[32],2.88
same,glycan array binding signal (z-score),[33],-0.037
same,glycan array binding signal (z-score),[34],0.602
same,glycan array binding signal (z-score),[35],-0.483
same,glycan array binding signal (z-score),Neu5Ac(a2-6)Gal,-0.29
